Patent US20190169310A1 (Amgen, published 2019)

Molecular target: T1, 1-27 CD3-Fc (human)
T1 construct: assigned to this molecule; also called 1-27 CD3ε-Fc; 27 aa huCD3E
Test: ELISA, periplasmic scFv on captured 1-27 CD3-Fc

B1: H1E HLP (scFv)
scFv: EVQLLESGGGLEQPGGSLKLSCAASGFTFNSYAMNWVRQAPGKGLEWVARIRSKYNNYATYYADSVKGRFTISRDDSKNTAYLQMNNLKTEDTAVYYCVRHGNFGNSYLSFWAYWGQGTLVTVSSGGGGSGGGGSGGGGSELVVTQEPSLTVSPGGTVTLT[letters of about 80 residues not shown]FGGGTKLTVL
notes: crude periplasmic preparation; also called VH-VL-P of H1E
Question: Does B1 bind?
Answer: binds
